Each structure is given as a SMILES string. The whole screen tested about 310,000 compounds, of which about 14,000 (4.5%) showed an effect of 50% or more. The effect is printed as a negative number. The list shows a part of the results.
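Also: peak tail current of the secondary pulse compared with the same well before compound.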

This test deals with human ether-à-go-go-related gene (hERG) potassium channel (human, UniProt Q12809). Description: primary screen, population patch clamp on CHO cells stably expressing hERG.
Sequence of human ether-à-go-go-related gene (hERG) potassium channel (Q12809 whole entry, looked up): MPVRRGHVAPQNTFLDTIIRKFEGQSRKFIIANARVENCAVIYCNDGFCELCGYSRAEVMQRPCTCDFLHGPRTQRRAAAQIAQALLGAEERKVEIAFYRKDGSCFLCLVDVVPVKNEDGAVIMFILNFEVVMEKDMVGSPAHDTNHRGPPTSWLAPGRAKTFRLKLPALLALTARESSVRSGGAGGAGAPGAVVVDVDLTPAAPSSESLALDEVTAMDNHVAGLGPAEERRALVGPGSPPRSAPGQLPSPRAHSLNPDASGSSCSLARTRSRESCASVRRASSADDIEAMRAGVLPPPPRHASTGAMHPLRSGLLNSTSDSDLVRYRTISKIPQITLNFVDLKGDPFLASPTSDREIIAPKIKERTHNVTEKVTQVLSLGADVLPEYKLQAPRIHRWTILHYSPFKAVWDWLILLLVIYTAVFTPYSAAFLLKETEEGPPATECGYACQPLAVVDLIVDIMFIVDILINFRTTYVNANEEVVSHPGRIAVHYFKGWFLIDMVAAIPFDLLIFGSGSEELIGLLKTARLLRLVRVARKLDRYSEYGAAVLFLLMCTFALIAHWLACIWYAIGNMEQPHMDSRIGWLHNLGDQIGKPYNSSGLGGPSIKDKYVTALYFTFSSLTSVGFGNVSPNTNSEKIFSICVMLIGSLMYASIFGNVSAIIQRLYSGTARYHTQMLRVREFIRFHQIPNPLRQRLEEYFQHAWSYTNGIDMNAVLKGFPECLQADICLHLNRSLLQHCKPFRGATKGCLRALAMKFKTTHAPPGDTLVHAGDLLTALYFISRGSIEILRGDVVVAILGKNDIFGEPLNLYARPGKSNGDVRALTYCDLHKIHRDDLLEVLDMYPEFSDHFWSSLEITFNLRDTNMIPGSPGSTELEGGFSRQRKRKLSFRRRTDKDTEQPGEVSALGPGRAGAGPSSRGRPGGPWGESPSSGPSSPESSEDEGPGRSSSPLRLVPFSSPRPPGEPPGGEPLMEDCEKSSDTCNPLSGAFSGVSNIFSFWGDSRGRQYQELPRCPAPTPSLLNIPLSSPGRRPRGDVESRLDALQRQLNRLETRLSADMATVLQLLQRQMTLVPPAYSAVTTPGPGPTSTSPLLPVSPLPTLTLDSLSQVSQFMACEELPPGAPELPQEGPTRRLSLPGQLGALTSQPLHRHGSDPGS
For the compound `COC(=O)c1ccccc1NC(=O)COc1ccc2c(c1)OCO2`, the “hERG current change (%, negative = inhibition) at 10uM” value was determined as 3.32%.
The value for `O=C(COc1cc2oc(=O)c3c(c2cc1Cl)CCC3)NCCCN1CCCC1=O` was -3.1%; that for `COCC(=O)Nc1c(C(=O)Nc2ccc3c(c2)OCCO3)oc2ccccc12` was -1.54%.
The value for `Cc1ccc(NC(=O)CN(C)S(=O)(=O)c2ccc3c(c2)n(C)c(=O)c(=O)n3C)cc1` was 13.9%.
In the case of `O=C(NC1CCCCC1)c1sc(N2CCOCC2)nc1-c1ccccc1`, the “hERG current change (%, negative = inhibition) at 10uM” value is given as -25.2%.
For `CS(=O)(=O)N(CC(=O)O)c1cc(C(F)(F)F)ccc1Cl`, the “hERG current change (%, negative = inhibition) at 10uM” value is -16.9%.
With `C#CCNc1ccncc1S(=O)(=O)NC(=O)NC(C)C.O=[N+]([O-])O`, the “hERG current change (%, negative = inhibition) at 10uM” value is listed as -1.14%.
The value for `CCSc1ccc(/C(N)=N/OC(=O)c2cccs2)cn1` was 13.1%.
The value for `O=C(c1ccc(Br)s1)N1CCc2ccccc2C1` was -40.9%; that for `Cc1c(NC(=O)C2CCN(S(=O)(=O)c3ccc(Cl)cc3)CC2)c(=O)n(-c2ccccc2)n1C` was 21%.
As for `CC1(C)CC(=O)C=C(Nc2ccccn2)C1`, the figure is 8.92%; as for `CCc1nnc(NS(=O)(=O)c2ccc(N/C=C\C(=O)c3cccc(OC)c3)cc2)s1`, 21.3%; as for `Cc1cc(Oc2ccc(-c3nnc(-c4ccccc4)o3)cc2[N+](=O)[O-])ccc1Cl`, 19%.
As to `CCOC(=O)Nc1ccc(S(=O)(=O)Nn2cnnc2)cc1`, the “hERG current change (%, negative = inhibition) at 10uM” value came to 0.873%.
In the case of `Cl.Fc1ccc(Nc2ncnc3sc4c(c23)CCC4)cc1`, the “hERG current change (%, negative = inhibition) at 10uM” value was -21.6%.
As for `FC(F)(F)c1cc(-c2ccccn2)nc2cc(-c3ccccc3)nn12`, the figure is 18.6%.
The value for `Cc1ccc(C(=O)OCc2nnc(-c3ccccc3)o2)cc1S(=O)(=O)N1CCOCC1` was -26.7%.
Turning to `O=C1CC(N2CCN(Cc3ccccc3)CC2)C(=O)N1c1ccccc1` (stereo not shown), the “hERG current change (%, negative = inhibition) at 10uM” value was found to be 2.8%.
As for `CCOC(=O)[C@H]1[C@H]2COc3cc(OC)ccc3[C@@H]2N2C(=O)CN(Cc3ccccc3)C(=O)[C@@]12C`, the figure is -8.34%; as for `COc1ccc(C(CNC(=O)c2cc3ccccc3cc2O)N2CCOCC2)cc1` (stereo not shown), -3.36%; as for `O=C(CCC(=O)c1ccc(F)cc1)NCc1ccccc1C(F)(F)F`, 19.1%.
As for `O=C(Nc1cnc2sccn2c1=O)c1ccccc1Cl`, the figure is 4.42%; as for `CC(C)(C)C(=O)NNC(=O)C1CC1(c1ccccc1)c1ccccc1` (stereo not shown), 13.1%.
As for `CCOc1ccc(-c2c(C(=O)N/N=C/c3sccc3C)nnn2-c2nonc2N)cc1`, the figure is 19.7%.
Take `Cc1cn2nc(N)c3ccccc3c2n1`: the “hERG current change (%, negative = inhibition) at 10uM” value was -9.19%.
The value for `Cc1ccc(COc2ccsc2C(=O)NN)cc1` was 1.72%.
The value for `CC(=O)c1ccc(NC(=O)Nc2ccncc2)cc1` was 15.3%.
For the compound `CC1(C(=O)NC2CCCCC2)CCC(=O)N1Cc1cccnc1` (stereo not shown), the “hERG current change (%, negative = inhibition) at 10uM” value is given as 11.6%.
Consider `COc1ccc(-c2nc(N)n[nH]2)cc1`, for which the “hERG current change (%, negative = inhibition) at 10uM” value is 19.8%.
As for `COC(=O)c1ccc(NC(=O)COc2ccc(S(=O)(=O)NC(C)(C)C)cc2)cc1`, the figure is 24.9%; as for `COCCCNC(=O)/C(C#N)=C/c1c(N2CCN(C)CC2)nc2c(C)cccn2c1=O`, 14.9%.
As for `Cc1ccn2c(c1)nc(=O)c1cc(S(=O)(=O)N3CCC(C)CC3)ccc12`, the figure is -36.3%.
On to `O=C(COc1ccc(Br)cc1Cl)N1CCN(c2ncccn2)CC1`, for which the “hERG current change (%, negative = inhibition) at 10uM” value is on record as -49.7%.
Take `CSc1ncc(C(=O)O)c(C)n1`: the “hERG current change (%, negative = inhibition) at 10uM” value is recorded as 3.36%.
Regarding `CCOC(=O)C(Oc1ccc2c(-c3ccccc3)cc(=O)oc2c1C)c1ccccc1` (stereo not shown), the “hERG current change (%, negative = inhibition) at 10uM” value came to 7.58%.
As for `Cc1cc(NC(=O)c2c(Cl)c(C)nn2C)no1`, the figure is 11.1%; as for `CC(=O)NCCNC(=O)CNC(=O)c1ccc(Cl)cc1`, 9%.
As for `CC1CN(C(=O)c2ccc(CNS(=O)(=O)c3cccc(C(F)(F)F)c3)cc2)CC(C)O1` (stereo not shown), the figure is 9.72%; as for `COc1cccc(CNC(=O)c2ccccc2-c2ccccc2C(=O)O)c1`, 18%; as for `COC(=O)c1ccccc1OCCOCCOc1cccc2ccc(C)nc12`, -48.5%.
Regarding `COc1ccc(NC(=O)CSc2nnc(NC(=O)c3ccco3)s2)cc1`, the “hERG current change (%, negative = inhibition) at 10uM” value worked out at 12.2%.
On to `O=C1CCN(Cc2ccc([N+](=O)[O-])cc2)CCN1[C@H](CO)c1ccccc1`, for which the “hERG current change (%, negative = inhibition) at 10uM” value was -37.4%.
The value for `CC(=O)Nc1ccc(S(=O)(=O)N2CC3(C)CC2CC(C)(C)C3)cc1` (stereo not shown) was -1.79%; that for `COC(=O)c1ccc2c(=O)n(Cc3ccco3)c(SCC(=O)Nc3ccccc3Cl)nc2c1` was -4.06%.
As for `CCOc1c(CNCc2ccc(C(=O)O)cc2)cccc1OC.Cl`, the figure is 2.85%.
As for `CCOC(=O)CN1C(=O)NC2NC(=O)NC21` (stereo not shown), the “hERG current change (%, negative = inhibition) at 10uM” value is given as 15.5%.
As for `COc1ccc(-n2nc(C(=O)NCC(=O)N3CCC(C(N)=O)CC3)c3ccccc3c2=O)cc1OC`, the figure is 10.7%; as for `N#CCc1c(C#N)c(N)nc(N2CCN(S(=O)(=O)c3ccccc3)CC2)c1C#N`, -0.357%.
Regarding `CCN(CC)c1nc2c(c(=O)[nH]c(=O)n2C)n1CCCc1ccccc1`, the “hERG current change (%, negative = inhibition) at 10uM” value is -45.3%.
For `COc1ccc(CNS(=O)(=O)c2ccc3c(c2)CCN3C(=O)C2CC2)cc1`, the “hERG current change (%, negative = inhibition) at 10uM” value is -7.39%.
The value for `COc1cccc(CNC(=S)Nc2cc(C)cc(C)c2)c1` was 6.62%.
The value for `COC(=O)c1[nH]c2cc(C)ccc2c1NC(=O)CN1CCN(C(=O)c2ccco2)CC1` was -54.3%.
On to `Cn1ncc(N=Cc2ccccc2O)c1C(=O)N1CCOCC1`, for which the “hERG current change (%, negative = inhibition) at 10uM” value stood at 2.23%.
On to `O=[N+]([O-])c1ccccc1S(=O)(=O)c1ccccc1[N+](=O)[O-]`, for which the “hERG current change (%, negative = inhibition) at 10uM” value was found to be 15.6%.
As for `COc1ccccc1-c1cc(C(=O)NCCN2CCOCC2)no1`, the figure is 0.284%; as for `Cc1cc(C(=O)NNc2cc(Cl)ccc2Cl)no1`, 6.55%; as for `CC(C)C(=O)NC(=S)Nc1c(Cl)ccc2nsnc12`, -7.83%.
As for `COc1ccc(OC)c(NC(=O)CC2SC(=Nc3ccccc3)N(CCc3ccccn3)C2=O)c1` (stereo not shown), the figure is -13.6%; as for `FC(F)(F)c1ccccc1NC(=S)N1CCCCCC1`, 19.3%.
The value for `O=C(CNC(=O)C1CCCC1)Nc1ccccc1Br` was -1.32%; that for `COc1ccc(CCN=C2SCC(=O)N2Cc2ccccc2)cc1OC` was -7.84%; that for `Cc1ccc(/C=N/NC(=O)c2cccc(S(=O)(=O)Nc3ccccc3Cl)c2)s1` was -22%.
Regarding `COc1ccc(C2C3=C(CCCC3=O)Nc3nc(C(F)(F)F)nn32)c(OC)c1OC` (stereo not shown), the “hERG current change (%, negative = inhibition) at 10uM” value is -2.33%.
As for `CC(NC(=O)COc1ccccc1)C(=O)N1CCN(c2ccccc2)CC1` (stereo not shown), the figure is -20.7%; as for `O=C(O)c1ccc2c(=O)n3c(nc2c1)/C(=C/c1cccc(Cl)c1Cl)CCCC3`, 13.3%; as for `CCOc1ccc(C(=O)NNC(=O)CCNC(=O)c2ccco2)cc1OC`, 12.9%.
As to `CCCCn1c(N)c(N(CC)C(=O)c2ccc(N3CCCC3=O)cc2)c(=O)[nH]c1=O`, the “hERG current change (%, negative = inhibition) at 10uM” value came out at 7.65%.
As for `Cc1cc(N2C(=O)c3ccc(C(=O)Nc4ccccc4O)cc3C2=O)no1`, the figure is 14.1%; as for `O=C(Nc1ccc(O)c2c(=O)cc(-c3ccccc3Cl)oc12)c1ccccc1Cl`, -0.578%; as for `CCN1C(=O)/C(=C/N2CC(C)CC(C)C2)SC1=S` (stereo not shown), -4.81%.
For `CCCn1c(N2CCN(C(=O)NCc3ccccc3)CC2)nc2ccccc21`, the “hERG current change (%, negative = inhibition) at 10uM” value was -67.9%.
The value for `CCN(CC(=O)Nc1ccc(NC(C)=O)cc1)C(=O)c1cc2ccccc2oc1=O` was 9.72%; that for `CC(Oc1ccccc1)C(=O)Nc1ccc(S(=O)(=O)N2CCN(C)CC2)cc1` (stereo not shown) was -0.932%; that for `Cc1cnc(C(=O)Nc2cc(F)ccc2C)cn1` was 25.5%.
As for `O=C(COC(=O)Cc1c(Cl)cccc1Cl)Nc1ccc(OC(F)(F)F)cc1`, the figure is -6.15%.
The value for `O=S(=O)(NC(=NC1CCCCC1)c1ccccc1)c1ccc(F)cc1` was -13.1%; that for `COc1cccc(OCC(=O)NC2CCCCCC2)c1` was -4.24%.
As for `COc1ccc2[nH]c3c(NCCCN4CCCC4=O)ncnc3c2c1`, the “hERG current change (%, negative = inhibition) at 10uM” value is given as -14.6%.
Turning to `CC1CC(=O)N(CC(=O)NCc2ccc3c(c2)OCO3)c2ccccc2S1` (stereo not shown), the “hERG current change (%, negative = inhibition) at 10uM” value is recorded as -7.68%.
As for `O=C(NCc1cccs1)c1cc(-c2ccccc2)nc2ccccc12`, the figure is -27.4%; as for `CCOc1cccc(CNn2cnnc2)c1OCc1ccccc1`, -20.2%.
The value for `O=C(O)c1cc(NCc2cccs2)ccc1N1CCOCC1` was -6.75%; that for `CC(=O)N(C)c1ccc(NC(=O)c2ccco2)cc1` was 7.79%.
Take `CCOC(=O)C1=C(C)N(C)C(C)=C(C(=O)OCC)C1c1cccnc1`: the “hERG current change (%, negative = inhibition) at 10uM” value was 6.97%.
As for `Cc1ccc(CSc2nnc(-c3ccc(NS(=O)(=O)c4ccccc4)cc3)o2)cc1`, the figure is 11.8%; as for `O=C(CCc1nc(-c2ccccc2F)no1)Nc1ccc(Oc2ccccc2)cc1`, 12.7%; as for `COc1cc(NC(=O)CN2C(=O)CSc3ccc(S(=O)(=O)N4CCCC4)cc32)cc(OC)c1`, 3.57%.
As for `COc1ccc(-c2nn3c(C4CCCCC4)nnc3s2)cc1OC`, the figure is -15.2%.

For the origin of these results see PMC4336329 (PLoS ONE, 2015).
